# Test results: PubChem BioAssay AID720542 (National Center for Advancing Translational Sciences (NCATS), 2013)
# In all, about 360,000 compounds went through this assay and about 740 (0.21%) were called active. Inconclusive results, whose numbers are uncertain, are shown with a selection of clear calls. Calls come from the whole dose curve; as a rule, active = well fitted inhibition curve with a large enough effect; inconclusive = small, poorly fitted or top-dose-only effect; inactive = no such curve, though single readings can be large or run the other way. No potency is given beside an inconclusive call; the fits are too rough.
# Tested on: Plasmodium falciparum AMA1 (3D7) - RON2 peptide interaction
# Experiment: qHTS for Inhibitors of AMA1-RON; Towards Development of Antimalarial Drug Lead: Primary Screen; note: nearly all actives have a fitted effect of over 45% in size;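 for activity change, negative = inhibition: 0% = vehicle wells and -100% = peptide control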
# Conditions: AlphaScreen AMA1-biotinylated RON2 peptide binding; activity change, negative = inhibition: at 58.2 µM (top of the series)
# Outline: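 AMA1 (3D7) with his tag at 25 nM final met compounds first, then biotinylated RON2 peptide at 25 nM; detection used donor plus acceptor beads, 10 µg/mL apiece, read by AlphaScreen after 30 min at room temperature.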
# Potency is the fitted concentration of half-maximal effect; tags give direction and shape of the fitted curve.
SMILES,Potency,"activity change, negative = inhibition"
COc1ccc(OC)c(N/C(C)=C/C(=O)c2ccc(Br)cc2)c1,"inconclusive [inhibitor, partial curve, poor fit]",
Oc1ccc(/C=N/N=C/c2ccc(O)c(O)c2)cc1O,"inconclusive [inhibitor, partial curve]",
COc1cccc(OC)c1C(=O)N1CCN(Cc2cccnc2)CC1,"inconclusive [inhibitor, partial curve]",
CCC(c1nnnn1Cc1ccc2c(c1)OCO2)N1CCN(c2ccccc2)CC1 (stereo not drawn),"inconclusive [inhibitor, single point]",
CC1=C(C(=O)OCc2ccccc2)C(c2ccccc2Cl)NC(=O)N1C (stereo not drawn),"inconclusive [inhibitor, partial curve]",
O=[N+]([O-])c1ccccc1NCc1ccc(Cl)cc1,"inconclusive [inhibitor, single point]",
Cc1ccc(C(C)C)c(OCCCCN2CCNCC2)c1,"inconclusive [inhibitor, partial curve]",
C=CCN=c1scc(-c2ccc(F)cc2)n1/N=C/c1ccccn1,"inconclusive [inhibitor, partial curve]",
CCN(C(=O)COC(=O)/C=C/c1ccco1)C1CCCCC1,,inactive: 3.31% [at 11.6 µM]
COCCN(Cc1cc2cc3c(cc2nc1Cl)OCO3)C(=O)Nc1ccccc1OC,"inconclusive [inhibitor, partial curve, poor fit]",
CCN1CCC2(CC1)N=C(c1ccc(F)cc1)C(=S)N2C(=O)c1ccc(C)cc1,"inconclusive [inhibitor, partial curve]",
COc1ccc(OC(=O)c2cccc([N+](=O)[O-])c2)c(C(=O)/C=C/c2cccs2)c1,"inconclusive [inhibitor, partial curve]",
O=C(O)c1ccc(S(=O)(=O)c2ccc3c(c2)C(=O)N(NC(=O)c2ccccc2)C3=O)cc1,"inconclusive [inhibitor, partial curve]",
CCOC(=O)/C(C#N)=C/c1c(N2CCN(c3ccc(OC)cc3)CC2)nc2c(C)cccn2c1=O,"inconclusive [inhibitor, partial curve]",
COc1ccccc1OCCSc1nc2ccc([N+](=O)[O-])cc2s1,"inconclusive [inhibitor, partial curve]",
CN(/N=C/c1cc(Cl)cc(Cl)c1O)c1c(Cl)cccc1[N+](=O)[O-],"inconclusive [inhibitor, full curve]",
Cc1ccc(NS(=O)(=O)c2ccc(C(=O)NCC(c3ccco3)N3CCCCC3)cc2)cc1 (stereo not drawn),inactive,
CCOc1ccc(Nc2ccc(S(=O)(=O)N3CCN(C)CC3)cc2[N+](=O)[O-])cc1OCC,"inconclusive [inhibitor, full curve]",
Cc1cccc(Cn2ccc(NC(=O)c3cccnc3)n2)c1,inactive,
COc1ccc(-n2nnnc2C(CCc2ccccc2)N2CCN(C/C=C/c3ccccc3)CC2)cc1 (stereo not drawn),"inconclusive [inhibitor, partial curve]",
CC1CCCCN1C(=O)CSc1nnc(-c2ccccc2O)o1 (stereo not drawn),"inconclusive [inhibitor, single point]",
CN(C)c1ccc(/C=N/NC(=S)NCc2ccccc2)cc1,"inconclusive [inhibitor, single point]",
COc1ccc(C(C(=O)NCc2ccccc2)N(C(=O)c2snc(C(N)=O)c2N)c2ccccc2OC)cc1 (stereo not drawn),"inconclusive [inhibitor, partial curve]",

SMILES,Potency,"activity change, negative = inhibition"
CCOc1cc(N2CCOCC2)c(OCC)cc1NC(=O)CN1CCSC1=O,"inconclusive [inhibitor, single point]",
Cc1cccc(C)c1NC(=O)c1cc(-c2ccccn2)nc2ccccc12,inactive,
O=C1/C(=C/c2cccs2)CCC/C1=C\c1cccs1,active: 11.2 µM,
COC(=O)c1cc(O)cc(OC)c1Oc1cc(C)cc(O)c1C(=O)O,"inconclusive [inhibitor, partial curve]",
COc1ccc2c(c1)C(=C(C#N)C#N)C(=O)N2CCc1ccccc1,"inconclusive [inhibitor, single point]",
COc1ccc(C(=O)On2c(-c3ccc(Br)cc3)nc3ccccc3c2=O)cc1,inactive,
Cc1ncc([N+](=O)[O-])n1CCN1C(=O)c2ccccc2C1=O,inactive,
COC(=O)c1cc2c(C)cc3ccc(C)cn3c-2c1C(=O)OC,"inconclusive [inhibitor, single point]",
CCCc1ncc(C(O)c2cccc3ccccc23)n1C (stereo not drawn),"inconclusive [inhibitor, single point]",
Cc1ccc(/C=C/C(=O)Nc2ccc(N(C)C)cc2)o1,"inconclusive [inhibitor, single point]",
CC(=O)c1c(N2CCN(c3ccc(F)cc3)CC2)nc(=S)n(-c2ccccc2)c1C,"inconclusive [inhibitor, single point]",
COc1ccc(Cn2nnnc2C(c2ccc(N(C)C)cc2)N2CCC(C)CC2)cc1 (stereo not drawn),"inconclusive [inhibitor, single point]",
CCc1ccc(O)c(N=Cc2cccc(C)c2O)c1,inactive,
COc1ccc([N+](=O)[O-])cc1NC(=O)CSCc1ccc(Br)cc1,"inconclusive [inhibitor, partial curve]",
Cc1c(C(=O)OCC2CCCO2)[nH]c2c1C(=O)CC(c1ccc(N(C)C)cc1)C2 (stereo not drawn),"inconclusive [inhibitor, partial curve]",
CCN(CC(=O)Nc1cccc(OC)c1)C(=O)C1CCN(C(=O)Nc2ccccc2)CC1,inactive,
Cc1cc(C)c(S(=O)(=O)c2ccccc2C(=O)O)c(C)c1,inactive,
COc1ccccc1-c1nc(-c2ccccc2)nc(N2CCN(C)CC2)c1C#N,"inconclusive [inhibitor, single point]",
CN1CCN(C(=S)c2cn(Cc3ccc(F)cc3)c3ccccc23)CC1,"inconclusive [inhibitor, partial curve]",
O=S(=O)(Nc1ncccn1)c1ccc(Nc2ncnc3ccccc23)cc1,"inconclusive [inhibitor, single point]",
O=C(Nc1ccc(N2CCCCCC2)cc1)c1cccc(S(=O)(=O)N2CCOCC2)c1,"inconclusive [inhibitor, partial curve]",
O=C(O)c1ccc(N2C(=O)c3cccc4c(C(=O)O)ccc(c34)C2=O)cc1,"inconclusive [inhibitor, single point]",
CN(Cc1ccsc1)C(=O)Cn1cc(Br)ccc1=O,inactive,

SMILES,Potency,"activity change, negative = inhibition"
CC(C)(C)c1ccccc1NC(=O)CN1C(=O)NC(Cc2ccccc2)C1=O (stereo not drawn),inactive,
Cc1nnc(-c2cccc(Br)c2)c2cn(-c3cccc(Br)c3)nc12,"inconclusive [inhibitor, partial curve]",
O=C(CCCSc1ccccc1)Nc1nc(-c2ccccn2)cs1,"inconclusive [inhibitor, partial curve]",
CCOC(=O)C(C(=O)OCC)c1cc(Br)c2noc3c2c1C(=O)c1ccccc1-3,inactive,
Cc1nc(SCC(=O)Nc2ccc(S(=O)(=O)N3CCOCC3)cc2)c2c(C)c(C)sc2n1,inactive,
CN1C2=CC=CC=CC2=[N+](C)C12C=CC(=[N+]([O-])[O-])C=C2[N+](=O)[O-] (stereo not drawn),"inconclusive [inhibitor, partial curve]",
CC1CCCN(C(=O)CCS(=O)(=O)c2cc3c(cc2Cl)NC(=O)CO3)C1 (stereo not drawn),inactive,
Cc1cc(C)n(-c2ccc(C(=O)NC3CCCCC3)cc2)n1,inactive,
COc1cc(O)c(C(CCN2CCCC2)c2ccc(N(C)C)cc2)c(OC)c1 (stereo not drawn),"inconclusive [inhibitor, single point]",
O=C(/C=C/c1ccc2c(c1)OCO2)NCC1CCCO1 (stereo not drawn),inactive,
Cc1sc(NC(=O)c2cccc(N3C(=O)CCC3=O)c2)nc1-c1ccccc1,"inconclusive [inhibitor, single point]",
CC(C)Nc1ccc(Nc2ccccc2)cc1,"inconclusive [inhibitor, single point]",
COc1cc2[nH]c(-c3cccc(F)c3)cc(=O)c2cc1OC,inactive,
O=C(COC(=O)COc1cccc(F)c1)Nc1nc2ccccc2s1,inactive,
COc1ccccc1/C=C/C=N/N1CCN(Cc2ccc(Cl)cc2)CC1,"inconclusive [inhibitor, partial curve, poor fit]",
CN(CC(=O)Nc1c(Cl)cccc1Cl)C(=O)c1ccccc1SCC(=O)N1CCCC1,inactive,
COc1cc(OC)c2c(-c3cccc(-c4ccc(N(C)C)cc4)c3)cc(=O)oc2c1,"inconclusive [inhibitor, partial curve]",
CC1(C)CC(=O)C=C(Nc2cc(-c3ccccc3)[nH]n2)C1,inactive,
COC(=O)c1ccc2c(c1)SC1=C(CCCC1=O)N2,"inconclusive [inhibitor, single point]",
CCCCNC(=O)C(CC)(ONc1ccccc1C(F)(F)F)c1ccccc1 (stereo not drawn),"inconclusive [inhibitor, single point]",
CCOc1cc(/C=C2\SC(=S)N(Nc3ccccc3)C2=O)ccc1O,"inconclusive [inhibitor, partial curve]",
COc1cc(/C=N/O)cc(Br)c1OCc1cccc(Cl)c1,"inconclusive [inhibitor, partial curve]",
